Sequences and labels used below:
B1: TEV protease; numbered along this chain (parent)
chain: MGESLFKGPRDYNPISSSICHLTNESDGHTTSLYGIGFGPFIITNKHLFRRNNGTLVVQSLHGVFKVKDTTTLQQHLVDGRDMIIIRMPKDFPPFPQKLKFREPQREERICLVTTNFQTKSMSSMVSDTSCTFPSGDGIFWKHWIQTKDGQCGSPLVSTRDGFIVGIHSASNFTNTNNYFTSVPKNFMELLTNQEAQQWVSGWRLNADSVLWGGHKVFMVKPEEPFQPVKEATQL

The other results are listed elsewhere or left out. Sequences were assembled here from the parent chain. Inactive controls read about 0.05.

Variants of B1 are the subject of this test. The experiment in a line: raw area under fraction-flipped curve 0-4 h after induction (AUC4h, not background-subtracted), DNA-recorder readout of cleavage of the substrate (dimensionless); higher = more cleavage of the substrate by the protease variant. Particulars: temperature: 34 °C; time window: 0-4 h after rhamnose induction. The protocol:
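In vivo DNA recorder in E. coli TOP10(DE3) ΔrhaA at 34 °C. Each TEVp single-site mutant (parent TEVp 0) is paired with a single-site variant of the 7-mer TEVs (canonical ENLYFQ|S). The substrate sits between flexible linkers in a Bxb1-sfGFP-TEVs-SsrA fusion, so cleavage stabilises Bxb1 and speeds flipping of a recombination array, read by NGS. The value is the raw area under the fraction-flipped curve over 0-4 h after rhamnose induction (AUC4h), with ≥20 reads per time point. It is not background-subtracted; inactive controls average about 0.047.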
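Also: Bxb1 expression induced with 0.2% (w/v) L-rhamnose at OD600 near 0.5, cultures sampled hourly, flipped fraction per protease–substrate barcode pair counted by paired-end Illumina sequencing.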

With MGESLFKGPRDYNPISSSICHLTNESDGHTTSLYGIGFGPFIITNKHLFRRNNGTLVVQSLHGVFKVKDTTTLQQHLVDGRDMIIIRMPKDFMPFPQKLKFREPQREERICLVTTNFQTKSMSSMVSDTSCTFPSGDGIFWKHWIQTKDGQCGSPLVSTRDGFIVGIHSASNFTNTNNYFTSVPKNFMELLTNQEAQQWVSGWRLNADSVLWGGHKVFMVKPEEPFQPVKEATQL [P93M], the “area with substrate ENLCFQS” value turned out to be 0.0691, the “area with substrate ENLDFQS” value was determined as 0.0553, the “area with substrate ENLFFQS” value was found to be 0.0762 and the “area with substrate ENLHFQS” value is 0.0608. Also, the “area with substrate ENLIFQS” value is 0.0782, the “area with substrate ENLKFQS” value came to 0.0722, the “area with substrate ENLLFQS” value was determined as 0.041 and the “area with substrate ENLMFQS” value was found to be 0.11. Also, the “area with substrate ENLNFQS” value was determined as 0.0847, the “area with substrate ENLQFQS” value was 0.0417, the “area with substrate ENLSFQS” value was 0.0568 and the “area with substrate ENLVFQS” value is 0.102.
As for MGESLFKGPRDYNPISSSICHLTNESDGHTTSLYGIGFGPFIITNKHLFRRNNQTLVVQSLHGVFKVKDTTTLQQHLVDGRDMIIIRMPKDFPPFPQKLKFREPQREERICLVTTNFQTKSMSSMVSDTSCTFPSGDGIFWKHWIQTKDGQCGSPLVSTRDGFIVGIHSASNFTNTNNYFTSVPKNFMELLTNQEAQQWVSGWRLNADSVLWGGHKVFMVKPEEPFQPVKEATQL [G54Q], the “area with substrate ENLCFQS” value worked out at 0.0606, the “area with substrate ENLDFQS” value was found to be 0.0618, the “area with substrate ENLEFQS” value is 0.0632 and the “area with substrate ENLFFQS” value came out at 0.0703. The “area with substrate ENLHFQS” value is 0.0645, the “area with substrate ENLIFQS” value is 0.0671, the “area with substrate ENLKFQS” value came out at 0.0639 and the “area with substrate ENLLFQS” value stood at 0.0506. Also, the “area with substrate ENLMFQS” value amounted to 0.0739, the “area with substrate ENLNFQS” value was found to be 0.0757, the “area with substrate ENLPFQS” value stood at 0.0615 and the “area with substrate ENLQFQS” value was determined as 0.0924. The “area with substrate ENLRFQS” value was determined as 0.0629, the “area with substrate ENLSFQS” value is 0.0583 and the “area with substrate ENLWFQS” value was determined as 0.058.
Take MGESLFKGPRDYNPISSSICHLTNESDGHTTSLYGIGFGPFIITNKHLFRRNNGTLVVQSLHGVFKVKDTTTLQQHLVDGRDMIIIRMPKDFPPFPQKLKFREPQREERICLGTTNFQTKSMSSMVSDTSCTFPSGDGIFWKHWIQTKDGQCGSPLVSTRDGFIVGIHSASNFTNTNNYFTSVPKNFMELLTNQEAQQWVSGWRLNADSVLWGGHKVFMVKPEEPFQPVKEATQL [V113G]: the “area with substrate ENLCFQS” value came out at 0.0702, the “area with substrate ENLEFQS” value is 0.0672, the “area with substrate ENLFFQS” value amounted to 0.0754 and the “area with substrate ENLHFQS” value was determined as 0.0634. Besides, the “area with substrate ENLIFQS” value was found to be 0.0877, the “area with substrate ENLNFQS” value came out at 0.0603 and the “area with substrate ENLPFQS” value came to 0.0506.
MGESLFKGPRDYNPISSSICHLTNESDGHTTSLYGIGFGPFIITNKHLFRRNNGTLVVISLHGVFKVKDTTTLQQHLVDGRDMIIIRMPKDFPPFPQKLKFREPQREERICLVTTNFQTKSMSSMVSDTSCTFPSGDGIFWKHWIQTKDGQCGSPLVSTRDGFIVGIHSASNFTNTNNYFTSVPKNFMELLTNQEAQQWVSGWRLNADSVLWGGHKVFMVKPEEPFQPVKEATQL [Q59I]: the “area with substrate ENLCFQS” value was determined as 0.0674, the “area with substrate ENLDFQS” value was 0.0557, the “area with substrate ENLFFQS” value came to 0.0955 and the “area with substrate ENLGFQS” value amounted to 0.0277. Further, the “area with substrate ENLHFQS” value worked out at 0.0708, the “area with substrate ENLIFQS” value came to 0.0894, the “area with substrate ENLKFQS” value was found to be 0.0824 and the “area with substrate ENLLFQS” value is 0.0757. Moreover, the “area with substrate ENLMFQS” value was determined as 0.0641, the “area with substrate ENLNFQS” value was 0.0841, the “area with substrate ENLPFQS” value was 0.066 and the “area with substrate ENLRFQS” value is 0.0639. Moreover, the “area with substrate ENLSFQS” value was found to be 0.0576 and the “area with substrate ENLWFQS” value amounted to 0.0731.
For the variant MGESLFKGPRDYNPISSSICHLTNESDGHTTSLYGIGFGPFIITNKHLFRRNNGTLVVQSLHGVFKVKDTTTLQQHLVDGRDMIIIRMPKDFPPFPQKLKFREPQREERICLVTTNFQTKSMSSMVSDTSCTFPSGDGIFPKHWIQTKDGQCGSPLVSTRDGFIVGIHSASNFTNTNNYFTSVPKNFMELLTNQEAQQWVSGWRLNADSVLWGGHKVFMVKPEEPFQPVKEATQL [W141P], the “area with substrate ENLCFQS” value turned out to be 0.0513, the “area with substrate ENLDFQS” value stood at 0.061, the “area with substrate ENLEFQS” value stood at 0.054 and the “area with substrate ENLFFQS” value worked out at 0.056. The “area with substrate ENLHFQS” value came out at 0.0582, the “area with substrate ENLKFQS” value was 0.0578, the “area with substrate ENLNFQS” value came to 0.0492 and the “area with substrate ENLPFQS” value was determined as 0.0575. The “area with substrate ENLRFQS” value came to 0.039, the “area with substrate ENLSFQS” value amounted to 0.0595, the “area with substrate ENLVFQS” value turned out to be 0.0521 and the “area with substrate ENLWFQS” value is 0.0595.
As to MGESLFKGPRDYNPISSSICHLTNESDGHTTSLYGIGFGPFIITNKHLFRRNNGTLVVQSLHGVFKVKDTTTLQQHLVDGRDMIIIRMPKDFPPFPQKLKFREPQREERICLVTTNFQTKSMSSMVEDTSCTFPSGDGIFWKHWIQTKDGQCGSPLVSTRDGFIVGIHSASNFTNTNNYFTSVPKNFMELLTNQEAQQWVSGWRLNADSVLWGGHKVFMVKPEEPFQPVKEATQL [S127E], the “area with substrate ENLCFQS” value amounted to 0.0835, the “area with substrate ENLDFQS” value came out at 0.0657, the “area with substrate ENLEFQS” value is 0.066 and the “area with substrate ENLFFQS” value was determined as 0.0769. The “area with substrate ENLHFQS” value came to 0.116, the “area with substrate ENLKFQS” value was 0.0727, the “area with substrate ENLMFQS” value was determined as 0.0722 and the “area with substrate ENLNFQS” value was determined as 0.0831. In addition, the “area with substrate ENLPFQS” value came out at 0.0673, the “area with substrate ENLRFQS” value turned out to be 0.0556, the “area with substrate ENLSFQS” value came out at 0.0479 and the “area with substrate ENLTFQS” value came to 0.0887. Moreover, the “area with substrate ENLVFQS” value was found to be 0.105.
Turning to MGESLFKGPRDYNPISSSICHLTNESDGHTTSLYGIGFGPFIITNKHLFRRNNGTLVVQSLHGVFKVKDTTTLQQHLVDGRDMIIIRMPKDFPPFPQALKFREPQREERICLVTTNFQTKSMSSMVSDTSCTFPSGDGIFWKHWIQTKDGQCGSPLVSTRDGFIVGIHSASNFTNTNNYFTSVPKNFMELLTNQEAQQWVSGWRLNADSVLWGGHKVFMVKPEEPFQPVKEATQL [K98A], the “area with substrate ENLCFQS” value is 0.0794, the “area with substrate ENLDFQS” value was determined as 0.0598, the “area with substrate ENLFFQS” value is 0.0861 and the “area with substrate ENLGFQS” value was found to be 0.0677. Besides, the “area with substrate ENLHFQS” value was determined as 0.042, the “area with substrate ENLIFQS” value stood at 0.0751, the “area with substrate ENLKFQS” value was 0.0754 and the “area with substrate ENLLFQS” value was 0.073. Also, the “area with substrate ENLNFQS” value was determined as 0.0657, the “area with substrate ENLPFQS” value amounted to 0.0647, the “area with substrate ENLQFQS” value came out at 0.0831 and the “area with substrate ENLRFQS” value worked out at 0.0817. For the same variant, the “area with substrate ENLSFQS” value came out at 0.0599, the “area with substrate ENLVFQS” value is 0.0791 and the “area with substrate ENLWFQS” value is 0.071.
MGESLFKGPRDYNPISSSICHLTNESDGHTTSLYGIGFGPFIITNKHLFRRNNGTLVVQSLHGVFKVKDTTTLQQHLVDGRDMIIIRMPKDFPPFPQKLKFREPQREERIMLVTTNFQTKSMSSMVSDTSCTFPSGDGIFWKHWIQTKDGQCGSPLVSTRDGFIVGIHSASNFTNTNNYFTSVPKNFMELLTNQEAQQWVSGWRLNADSVLWGGHKVFMVKPEEPFQPVKEATQL [C111M]: the “area with substrate ENLCFQS” value was 0.0567, the “area with substrate ENLDFQS” value was 0.0585, the “area with substrate ENLFFQS” value was found to be 0.0754 and the “area with substrate ENLGFQS” value amounted to 0.0644. The “area with substrate ENLHFQS” value came out at 0.042, the “area with substrate ENLIFQS” value was found to be 0.0819, the “area with substrate ENLMFQS” value was found to be 0.0698 and the “area with substrate ENLNFQS” value came to 0.0538. Also, the “area with substrate ENLPFQS” value was determined as 0.0517, the “area with substrate ENLQFQS” value is 0.0687, the “area with substrate ENLRFQS” value was 0.0741 and the “area with substrate ENLWFQS” value came to 0.0086.
As for MGESLFKGPRDYNPISSSICHLTNESDGHTTSLYGIGFGPFIITNKHLFRRNNGTLVVQSLHGVFKVKDTTTLQQHLVDGRDMIIIRMPKDFPPFPQKLKFREPQREEQICLVTTNFQTKSMSSMVSDTSCTFPSGDGIFWKHWIQTKDGQCGSPLVSTRDGFIVGIHSASNFTNTNNYFTSVPKNFMELLTNQEAQQWVSGWRLNADSVLWGGHKVFMVKPEEPFQPVKEATQL [R109Q], the “area with substrate ENLCFQS” value worked out at 0.0805, the “area with substrate ENLDFQS” value amounted to 0.0503, the “area with substrate ENLEFQS” value stood at 0.0771 and the “area with substrate ENLFFQS” value was 0.0813. For the same variant, the “area with substrate ENLHFQS” value was found to be 0.0905, the “area with substrate ENLIFQS” value stood at 0.0737, the “area with substrate ENLKFQS” value was 0.063 and the “area with substrate ENLLFQS” value is 0.0694. For the same variant, the “area with substrate ENLMFQS” value stood at 0.0652, the “area with substrate ENLNFQS” value was found to be 0.0666, the “area with substrate ENLPFQS” value stood at 0.0419 and the “area with substrate ENLQFQS” value stood at 0.0463. In addition, the “area with substrate ENLRFQS” value worked out at 0.0685, the “area with substrate ENLSFQS” value was 0.0593, the “area with substrate ENLTFQS” value was found to be 0.0649 and the “area with substrate ENLVFQS” value was determined as 0.0781. The “area with substrate ENLWFQS” value was found to be 0.0682.

Source of the values: the supplement of paper PMC12217912.
